# Data: the supplement of paper PMC10037445
# Several values for one entry are separate records, joined by “and”; a condition that tells them apart may be missing. Equal values may be shown once. Whole data set: some 2,900 compounds, median “NF-kB SEAP reporter activity, fold change vs agonist alone” near 0.99, cut for the highest 2% near 2.6. This is one part of the list.
# What was measured:
# [1] = tested on: RAW-Dual; test: NF-kB SEAP reporter activity, fold change vs agonist alone; cytotoxicity flag (confluency mask): not cytotoxic; higher = enhanced NF-kB activity
# Summary of the method: (§1)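 RAW-Dual macrophages were seeded in DMEM at 50,000 cells/well in 384-well plates, given 50 nL of library stock by pin tool, and given a PRR agonist 1 h later. Plates were held at 37 °C, 5% CO2 for 20 hours, after which supernatant was read for IRF by QuantiLuc luminescence and for NF-κB by QuantiBlue absorbance at 620 nm. Reporter activity is expressed as fold change over wells that received agonist alone. A well was called cytotoxic when IncuCyte confluency fell below 70% of agonist controls in both mask sets.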
# [2] = tested on: RAW-Dual; test: NF-kB SEAP reporter activity, fold change vs agonist alone; higher = enhanced NF-kB activity; settings: library stock concentration (final ~1000-fold dilution): 10 mM
# Summary of the method: as §1
# [3] = tested on: RAW-Dual; test: NF-kB SEAP reporter activity, fold change vs agonist alone; cytotoxicity flag (confluency mask): cytotoxic (confluency <70% of control); higher = enhanced NF-kB activity
# Summary of the method: as §1
# [4] = agonist: ODN 1826 (TLR9) 0.5 ug/mL
# [5] = agonist: Pam2CSK4 (TLR2/6) 0.1 ug/mL
# [6] = agonist: Pam3CSK4 (TLR2/1) 0.1 ug/mL
# [7] = cytotoxicity flag (confluency mask): not cytotoxic, agonist: Imiquimod (TLR7) […]
# [8] = cytotoxicity flag (confluency mask): not cytotoxic, agonist: MPLA (TLR4) […]
smiles,measurement,setting,value
Cc1ccc(S(=O)(=O)O)cc1.NC(=O)c1cccc2cn(-c3ccc(C4CCCNC4)cc3)nc12 (stereo unspecified) (library stock concentration (final ~1000-fold dilution): 10 mM),NF-kB SEAP reporter activity,[1]; agonist: LPS (TLR4) 0.1 ug/mL,1.04
same,NF-kB SEAP reporter activity,[1]; [4],0.181
same,NF-kB SEAP reporter activity,[1]; [5],1.41
same,NF-kB SEAP reporter activity,[1]; [6],1.1
COc1cc2c(cc1OC)-c1cc3ccc(OC)c(OC)c3c[n+]1CC2 (library stock concentration (final ~1000-fold dilution): 10 mM),NF-kB SEAP reporter activity,[1]; agonist: LPS (TLR4) 0.1 ug/mL,1.27 and 1.09
same,NF-kB SEAP reporter activity,[1]; [4],1.01 and 0.974
same,NF-kB SEAP reporter activity,[1]; [5],1.33 and 0.684
same,NF-kB SEAP reporter activity,[1]; [6],1.13 and 0.916
CNC(=C[N+](=O)[O-])NCCSCc1ccc(CN(C)C)o1 (library stock concentration (final ~1000-fold dilution): 10 mM),NF-kB SEAP reporter activity,[1]; agonist: LPS (TLR4) 0.1 ug/mL,0.982 and 1.15
same,NF-kB SEAP reporter activity,[1]; [4],0.975 and 1.06
same,NF-kB SEAP reporter activity,[1]; [5],0.994 and 1.06
same,NF-kB SEAP reporter activity,[1]; [6],0.987 and 1.11
C=CCc1ccc(O)c(-c2ccc(O)c(CC=C)c2)c1 (library stock concentration (final ~1000-fold dilution): 10 mM),NF-kB SEAP reporter activity,[1]; agonist: LPS (TLR4) 0.1 ug/mL,0.993
same,NF-kB SEAP reporter activity,[1]; [4],0.982
same,NF-kB SEAP reporter activity,[1]; [5],0.432
same,NF-kB SEAP reporter activity,[1]; [6],0.921
C=CCc1ccc(O)c(-c2ccc(O)c(CC=C)c2)c1,NF-kB SEAP reporter activity,[2]; [7],0.854
same,NF-kB SEAP reporter activity,[2]; [8],0.972
N#CCC(C1CCCC1)n1cc(-c2ncnc3[nH]ccc23)cn1 (stereo unspecified) (library stock concentration (final ~1000-fold dilution): 10 mM),NF-kB SEAP reporter activity,[1]; agonist: LPS (TLR4) 0.1 ug/mL,0.995 and 0.96 and 0.998
same,NF-kB SEAP reporter activity,[1]; [4],2.7 and 1.88 and 2.86
same,NF-kB SEAP reporter activity,[1]; [5],1.81 and 1.49 and 1.69
same,NF-kB SEAP reporter activity,[1]; [6],2.14 and 2.16 and 2.67
CCOC(=O)/C=C/c1ccc(O)c(OC)c1,NF-kB SEAP reporter activity,[2]; [7],1.08
same,NF-kB SEAP reporter activity,[2]; [8],1.2
CCOC(=O)/C=C/c1ccc(O)c(OC)c1 (library stock concentration (final ~1000-fold dilution): 10 mM),NF-kB SEAP reporter activity,[1]; agonist: LPS (TLR4) 0.1 ug/mL,0.998
same,NF-kB SEAP reporter activity,[1]; [4],1.03
same,NF-kB SEAP reporter activity,[1]; [5],0.959
same,NF-kB SEAP reporter activity,[1]; [6],1.07
Cc1cc(-c2nc(-c3ccc(OC(F)(F)F)cc3)no2)nn1Cc1ccnc(N2CCN(C3CC3)CC2)c1,NF-kB SEAP reporter activity,[2]; [7],0.931
same,NF-kB SEAP reporter activity,[2]; [8],1.32
Cc1cc(-c2nc(-c3ccc(OC(F)(F)F)cc3)no2)nn1Cc1ccnc(N2CCN(C3CC3)CC2)c1 (library stock concentration (final ~1000-fold dilution): 10 mM),NF-kB SEAP reporter activity,[1]; agonist: LPS (TLR4) 0.1 ug/mL,1.81
same,NF-kB SEAP reporter activity,[1]; [4],0.926
same,NF-kB SEAP reporter activity,[1]; [5],0.747
same,NF-kB SEAP reporter activity,[1]; [6],0.842
CC(=O)C1CCC2C3CCC4=CC(=O)CCC4(C)C3CCC12C (stereo unspecified),NF-kB SEAP reporter activity,[2]; [7],0.441
same,NF-kB SEAP reporter activity,[2]; [8],1.06
CC(=O)C1CCC2C3CCC4=CC(=O)CCC4(C)C3CCC12C (stereo unspecified) (library stock concentration (final ~1000-fold dilution): 10 mM),NF-kB SEAP reporter activity,[1]; agonist: LPS (TLR4) 0.1 ug/mL,0.981
same,NF-kB SEAP reporter activity,[1]; [4],1.06
same,NF-kB SEAP reporter activity,[1]; [5],1.38
same,NF-kB SEAP reporter activity,[1]; [6],1.51
Cc1[nH]c(/C=C2\C(=O)Nc3ccc(S(=O)(=O)Cc4c(Cl)cccc4Cl)cc32)c(C)c1C(=O)N1CCCC1CN1CCCC1 (stereo unspecified),NF-kB SEAP reporter activity,"[2]; cytotoxicity flag (confluency mask): cytotoxic (confluency <70% of control), agonist: Imiquimod (TLR7) […]",2.04
same,NF-kB SEAP reporter activity,"[2]; cytotoxicity flag (confluency mask): cytotoxic (confluency <70% of control), agonist: MPLA (TLR4) […]",1.3
Cc1[nH]c(/C=C2\C(=O)Nc3ccc(S(=O)(=O)Cc4c(Cl)cccc4Cl)cc32)c(C)c1C(=O)N1CCCC1CN1CCCC1 (stereo unspecified) (library stock concentration (final ~1000-fold dilution): 10 mM),NF-kB SEAP reporter activity,[3]; agonist: LPS (TLR4) 0.1 ug/mL,0.658
same,NF-kB SEAP reporter activity,[3]; [4],1.39
same,NF-kB SEAP reporter activity,[3]; [5],0.551
same,NF-kB SEAP reporter activity,[3]; [6],0.886
COCC(NC(=O)c1cnc(C)s1)C(=O)NC(COC)C(=O)NC(Cc1ccccc1)C(=O)C1(C)CO1 (stereo unspecified) (library stock concentration (final ~1000-fold dilution): 10 mM),NF-kB SEAP reporter activity,[1]; agonist: LPS (TLR4) 0.1 ug/mL,0.377
same,NF-kB SEAP reporter activity,[1]; [4],1.25
same,NF-kB SEAP reporter activity,[1]; [5],0.279
same,NF-kB SEAP reporter activity,[1]; [6],0.692
COCC(NC(=O)c1cnc(C)s1)C(=O)NC(COC)C(=O)NC(Cc1ccccc1)C(=O)C1(C)CO1 (stereo unspecified),NF-kB SEAP reporter activity,[2]; [7],2.34
same,NF-kB SEAP reporter activity,[2]; [8],1.21
Cc1cn(C2CC(N=[N+]=[N-])C(CO)O2)c(=O)[nH]c1=O (stereo unspecified),NF-kB SEAP reporter activity,[2]; [7],1.07
same,NF-kB SEAP reporter activity,[2]; [8],1.1
Cc1cn(C2CC(N=[N+]=[N-])C(CO)O2)c(=O)[nH]c1=O (stereo unspecified) (library stock concentration (final ~1000-fold dilution): 10 mM),NF-kB SEAP reporter activity,[1]; agonist: LPS (TLR4) 0.1 ug/mL,0.99
same,NF-kB SEAP reporter activity,[1]; [4],1.04
same,NF-kB SEAP reporter activity,[1]; [5],1.11
same,NF-kB SEAP reporter activity,[1]; [6],1.15
OCc1ccc(-c2ccc(-c3ccc(CO)s3)o2)s1 (library stock concentration (final ~1000-fold dilution): 10 mM),NF-kB SEAP reporter activity,[1]; agonist: LPS (TLR4) 0.1 ug/mL,1.13
same,NF-kB SEAP reporter activity,[1]; [4],0.961
same,NF-kB SEAP reporter activity,[1]; [5],0.904
same,NF-kB SEAP reporter activity,[1]; [6],1
OCc1ccc(-c2ccc(-c3ccc(CO)s3)o2)s1,NF-kB SEAP reporter activity,[2]; [7],1.33
same,NF-kB SEAP reporter activity,[2]; [8],1.12
O=c1c(-c2ccc(O)cc2)coc2cc(O)cc(O)c12,NF-kB SEAP reporter activity,[2]; [7],1.7
same,NF-kB SEAP reporter activity,[2]; [8],1.64
O=c1c(-c2ccc(O)cc2)coc2cc(O)cc(O)c12 (library stock concentration (final ~1000-fold dilution): 10 mM),NF-kB SEAP reporter activity,[1]; agonist: LPS (TLR4) 0.1 ug/mL,1.59
same,NF-kB SEAP reporter activity,[1]; [4],1.6
same,NF-kB SEAP reporter activity,[1]; [5],1.15
same,NF-kB SEAP reporter activity,[1]; [6],1.26
Nc1cc(O)nc(N)n1,NF-kB SEAP reporter activity,[2]; [7],1.09
same,NF-kB SEAP reporter activity,[2]; [8],0.975
Nc1cc(O)nc(N)n1 (library stock concentration (final ~1000-fold dilution): 10 mM),NF-kB SEAP reporter activity,[1]; agonist: LPS (TLR4) 0.1 ug/mL,0.917
same,NF-kB SEAP reporter activity,[1]; [4],1.02
same,NF-kB SEAP reporter activity,[1]; [5],0.869
same,NF-kB SEAP reporter activity,[1]; [6],1.1
